Results reported in publication PMC5951851.
No constants are given. Whether binding was seen depends on the method and setting. In cells and extracts the contact can be indirect. Some entries that bind do so weakly or less than the wild type. Where a sequence is shown, tags or fusion partners need not be part of it.

How the values were obtained:
[1] = molecular target: RGS1 (luciferase complementation fusion) (Arabidopsis thaliana) (UniProt Q8H1F2); test: split reporter; luciferase complementation; Nluc and Cluc constructs co-expressed in N. benthamiana leaves by Agrobacterium; leaf disks after 2 days with 1 mM luciferin; with or without flg22, elf18 or chitin
[2] = molecular target: T1, RGS1^S431A (luciferase complementation fusion) (Arabidopsis thaliana) (UniProt Q8H1F2); test: as above
T1 sequence: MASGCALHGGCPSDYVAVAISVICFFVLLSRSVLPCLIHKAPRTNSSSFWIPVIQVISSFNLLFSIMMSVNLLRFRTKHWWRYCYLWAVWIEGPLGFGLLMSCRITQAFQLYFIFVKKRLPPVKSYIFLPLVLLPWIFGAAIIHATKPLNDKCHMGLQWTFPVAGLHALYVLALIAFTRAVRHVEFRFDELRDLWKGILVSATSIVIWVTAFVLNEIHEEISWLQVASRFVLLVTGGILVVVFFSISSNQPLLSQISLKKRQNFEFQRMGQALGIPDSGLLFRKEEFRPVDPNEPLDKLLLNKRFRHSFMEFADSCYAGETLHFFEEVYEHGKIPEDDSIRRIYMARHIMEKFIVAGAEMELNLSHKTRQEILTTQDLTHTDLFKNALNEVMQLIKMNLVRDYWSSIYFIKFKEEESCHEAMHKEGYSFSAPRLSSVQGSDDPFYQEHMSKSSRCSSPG

[3] = molecular target: T2, RGS1CT-FLAG (Arabidopsis thaliana) (UniProt Q8H1F2); test: co-IP; Arabidopsis protoplasts (Col-0 or rgs1-2) transfected, with or without 1 μM flg22 for 5 min, with or without co-expressed RGS1 variants; extraction buffer 50 mM HEPES pH 7.5, 150 mM KCl, 10 mM EDTA, 0.5% Triton X-100, 1 mM DTT; anti-FLAG M2 agarose, eluted with 3×FLAG peptide; anti-HA and anti-FLAG immunoblots
T2 sequence: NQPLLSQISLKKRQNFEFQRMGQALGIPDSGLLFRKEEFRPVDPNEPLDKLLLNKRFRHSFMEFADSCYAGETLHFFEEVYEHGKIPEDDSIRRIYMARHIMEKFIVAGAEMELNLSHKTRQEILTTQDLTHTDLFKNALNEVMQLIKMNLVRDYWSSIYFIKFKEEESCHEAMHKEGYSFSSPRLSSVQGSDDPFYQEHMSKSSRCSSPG

[4] = molecular target: T3, RGS1CT^S431A-FLAG (Arabidopsis thaliana) (UniProt Q8H1F2); test: as above
T3 sequence: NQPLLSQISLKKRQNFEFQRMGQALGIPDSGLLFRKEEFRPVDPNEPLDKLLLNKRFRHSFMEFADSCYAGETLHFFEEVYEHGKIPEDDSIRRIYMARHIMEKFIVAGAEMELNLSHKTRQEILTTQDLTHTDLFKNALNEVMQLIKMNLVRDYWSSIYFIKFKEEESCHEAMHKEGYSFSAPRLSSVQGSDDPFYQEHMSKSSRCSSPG

[5] = molecular target: T4, RGS1 (luciferase complementation fusion) (Arabidopsis thaliana), Q8H1F2; test: split reporter; luciferase complementation; Nluc and Cluc constructs co-expressed in N. benthamiana leaves by Agrobacterium; leaf disks after 2 days with 1 mM luciferin; with or without flg22, elf18 or chitin; conditions: remark: other sources report otherwise
T4 chain: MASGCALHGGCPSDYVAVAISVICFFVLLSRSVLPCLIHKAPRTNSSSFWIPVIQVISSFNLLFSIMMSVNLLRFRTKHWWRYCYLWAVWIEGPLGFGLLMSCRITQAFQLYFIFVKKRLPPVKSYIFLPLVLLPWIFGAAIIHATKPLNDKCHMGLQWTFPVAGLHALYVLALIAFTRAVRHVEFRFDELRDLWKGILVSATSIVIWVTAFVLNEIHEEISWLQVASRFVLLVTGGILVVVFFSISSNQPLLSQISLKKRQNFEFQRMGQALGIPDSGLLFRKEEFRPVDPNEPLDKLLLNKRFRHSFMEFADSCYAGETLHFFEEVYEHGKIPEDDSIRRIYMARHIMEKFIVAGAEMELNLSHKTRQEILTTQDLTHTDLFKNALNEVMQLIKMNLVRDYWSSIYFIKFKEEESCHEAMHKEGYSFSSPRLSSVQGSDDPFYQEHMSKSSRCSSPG

B1: XLG2 (luciferase complementation fusion) (protein, UniProt C6KIE6 1-861)
chain: MAAVIRKLLPFPSPNPKRDNRESDDDDETSSGYRIEYSFASEYKGPLIANVPRALPVEVDQIPTALPVSFSSLRSGISYPVAPLVMTKDTKRPPDSGIEKKNGFVDSAAGSSVVLIGRDVVSGSSSSSSSKRLDVPEEVKSPADFRLSPSSPLSASAREEDHLDDDRVSDVGPRAVRFVEPFQSSECDESSYVSDGESIAATHRAERKGKRGSCYRCQLGNRFTEKEVCIVCDAKYCFNCVRRAMGAMPEGRKCQACIGYRIDESKRASLGKCSRMLKRHLTDSELRQVMNAEITCKANQLPSRLIIVNDKPLSEDELYTLQTCPNPPKKLKPGHYWYDKVAGYWGKIGEKPSQIISPNNSIGGYISEKVSNGDTEIYINGREITKPELTMLKWAGVQCEGKPHFWVDSDGSYREEGQKHPIGNIWSKKRAKIACAVFSLPVPPASSAVEPYDVPLYEQKMLNKLLLIGSEKGGATTIYKQARSLYNVSFSLEDRERIKFIIQTNLYTYLAMVLEAHERFEKEMSNDQSSGNVGDETSAKPGNSINPRLKHFSDWVLKEKEDGNLKIFPPSSRENAQTVADLWRVPAIQATYKRLRDTLPRNAVYFLERILEISRSEYDPSDMDILQAEGLSSMEGLSCVDFSFPSTSQEESLESDYQHDTDMKYQLIRLNPRSLGENWKLLEMFEDADLVIFCVSLTDYAENIEDGEGNIVNKMLATKQLFENMVTHPSLANKRFLLVLTKFDLLEEKIEEVPLRTCEWFEDFNPLISQNQTSRHNPPMAQRAFHYIGYKFKRLYDSILEPVNMRGRSFKPKLFVCQVSLESDTVDNALRYAREILKWHVEETSMFQEMSTTSIEASSSS
[1]
  binding: binds
[2]
  binding: binds

B2: XLG2 (co-IP with RGS1CT) (protein, UniProt C6KIE6 1-861)
chain: MAAVIRKLLPFPSPNPKRDNRESDDDDETSSGYRIEYSFASEYKGPLIANVPRALPVEVDQIPTALPVSFSSLRSGISYPVAPLVMTKDTKRPPDSGIEKKNGFVDSAAGSSVVLIGRDVVSGSSSSSSSKRLDVPEEVKSPADFRLSPSSPLSASAREEDHLDDDRVSDVGPRAVRFVEPFQSSECDESSYVSDGESIAATHRAERKGKRGSCYRCQLGNRFTEKEVCIVCDAKYCFNCVRRAMGAMPEGRKCQACIGYRIDESKRASLGKCSRMLKRHLTDSELRQVMNAEITCKANQLPSRLIIVNDKPLSEDELYTLQTCPNPPKKLKPGHYWYDKVAGYWGKIGEKPSQIISPNNSIGGYISEKVSNGDTEIYINGREITKPELTMLKWAGVQCEGKPHFWVDSDGSYREEGQKHPIGNIWSKKRAKIACAVFSLPVPPASSAVEPYDVPLYEQKMLNKLLLIGSEKGGATTIYKQARSLYNVSFSLEDRERIKFIIQTNLYTYLAMVLEAHERFEKEMSNDQSSGNVGDETSAKPGNSINPRLKHFSDWVLKEKEDGNLKIFPPSSRENAQTVADLWRVPAIQATYKRLRDTLPRNAVYFLERILEISRSEYDPSDMDILQAEGLSSMEGLSCVDFSFPSTSQEESLESDYQHDTDMKYQLIRLNPRSLGENWKLLEMFEDADLVIFCVSLTDYAENIEDGEGNIVNKMLATKQLFENMVTHPSLANKRFLLVLTKFDLLEEKIEEVPLRTCEWFEDFNPLISQNQTSRHNPPMAQRAFHYIGYKFKRLYDSILEPVNMRGRSFKPKLFVCQVSLESDTVDNALRYAREILKWHVEETSMFQEMSTTSIEASSSS
[3]
  binding: binds
[4]
  binding: binds

B3: BAK1 (luciferase complementation fusion), Q94F62 26-615 (receptor)
chain: NAEGDALSALKNSLADPNKVLQSWDATLVTPCTWFHVTCNSDNSVTRVDLGNANLSGQLVMQLGQLPNLQYLELYSNNITGTIPEQLGNLTELVSLDLYLNNLSGPIPSTLGRLKKLRFLRLNNNSLSGEIPRSLTAVLTLQVLDLSNNPLTGDIPVNGSFSLFTPISFANTKLTPLPASPPPPISPTPPSPAGSNRITGAIAGGVAAGAALLFAVPAIALAWWRRKKPQDHFFDVPAEEDPEVHLGQLKRFSLRELQVASDNFSNKNILGRGGFGKVYKGRLADGTLVAVKRLKEERTQGGELQFQTEVEMISMAVHRNLLRLRGFCMTPTERLLVYPYMANGSVASCLRERPESQPPLDWPKRQRIALGSARGLAYLHDHCDPKIIHRDVKAANILLDEEFEAVVGDFGLAKLMDYKDTHVTTAVRGTIGHIAPEYLSTGKSSEKTDVFGYGVMLLELITGQRAFDLARLANDDDVMLLDWVKGLLKEKKLEALVDVDLQGNYKDEEVEQLIQVALLCTQSSPMERPKMSEVVRMLEGDGLAERWEEWQKEEMFRQDFNYPTHHPAVSGWIIGDSTSQIENEYPSGPR
[5]
  binding: no binding
